# The other results are listed elsewhere or left out.
# B1: BC2L-A (Burkholderia cenocepacia), Q1BKJ8_BURCA (protein)
# chain: ADSQTSSNRAGEFSIPPNTDFRAIFFANAAEQQHIKLFIGDSQEPAAYHKLTTRDGPREATLNSGNGKIRFEVSVNGKPSATDARLAPINGKKSDGSPFTVNFGIVVSEDGHDSDYNDGIVVLQWPIG
# Columns and labels:
# Experiment in all cases: glycan array binding signal (z-score within array); higher = stronger binding
# Conditions in all cases: glycan notation: IUPAC condensed, linker removed
# [1] = target: Neu5Ac(a2-6)Gal(b1-4)GlcNAc(b1-2)Man(a1-3)[GlcNAc(b1-2)Man(a1-6)]Man(b1-4)GlcNAc(b1-4)GlcNAc
# Procedure, shortened: (§1)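 The binding signal is a Z-score computed within each array and averaged over linkers. Arrays of the same protein sequence at different concentrations or buffers were also averaged together. Data originate from 3228 arrays in the Consortium for Functional Glycomics database, kept only where the protein sequence was available.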
# [2] = target: Neu5Ac(a2-6)Gal(b1-4)GlcNAc(b1-2)Man(a1-3)[GlcNAc(b1-2)Man(b1-4)GlcNAc(b1-2)Man(a1-6)]Man(b1-4)GlcNAc(b1-4)GlcNAc
# Procedure, shortened: as §1
# [3] = target: Neu5Ac(a2-6)Gal(b1-4)GlcNAc(b1-2)Man(a1-3)[Man(a1-6)]Man(b1-4)GlcNAc(b1-4)GlcNAc
# Procedure, shortened: as §1
# [4] = target: Neu5Ac(a2-6)Gal(b1-4)GlcNAc(b1-2)Man(a1-3)[Neu5Ac(a2-6)Gal(b1-4)GlcNAc(b1-2)Man(a1-6)]Man(b1-4)GlcNAc(b1-4)GlcNAc
# Procedure, shortened: as §1
# [5] = target: Neu5Ac(a2-6)Gal(b1-4)GlcNAc(b1-2)Man(a1-6)Man(b1-4)GlcNAc(b1-4)GlcNAc
# Procedure, shortened: as §1
# [6] = target: Neu5Ac(a2-6)Gal(b1-4)GlcNAc(b1-2)Man(a1-6)[Gal(b1-4)GlcNAc(b1-2)Man(a1-3)]Man(b1-4)GlcNAc(b1-4)GlcNAc
# Procedure, shortened: as §1
# [7] = target: Neu5Ac(a2-6)Gal(b1-4)GlcNAc(b1-2)Man(a1-6)[GlcNAc(b1-2)Man(a1-3)]Man(b1-4)GlcNAc(b1-4)GlcNAc
# Procedure, shortened: as §1
# [8] = target: Neu5Ac(a2-6)Gal(b1-4)GlcNAc(b1-2)Man(a1-6)[Man(a1-3)]Man(b1-4)GlcNAc(b1-4)GlcNAc
# Procedure, shortened: as §1
# [9] = target: Neu5Ac(a2-6)Gal(b1-4)GlcNAc(b1-3)Gal(b1-3)GlcNAc
# Procedure, shortened: as §1
# [10] = target: Neu5Ac(a2-6)Gal(b1-4)GlcNAc(b1-3)Gal(b1-4)GlcNAc
# Procedure, shortened: as §1
# [11] = target: Neu5Ac(a2-6)Gal(b1-4)GlcNAc(b1-3)Gal(b1-4)GlcNAc(b1-3)Gal(b1-4)GlcNAc
# Procedure, shortened: as §1
# [12] = target: Neu5Ac(a2-6)Gal(b1-4)GlcNAc(b1-3)Gal(b1-4)[Fuc(a1-3)]GlcNAc(b1-3)Gal(b1-4)[Fuc(a1-3)]GlcNAc
# Procedure, shortened: as §1
# [13] = target: Neu5Ac(a2-6)Gal(b1-4)GlcNAc(b1-3)GalNAc
# Procedure, shortened: as §1
# [14] = target: Neu5Ac(a2-6)Gal(b1-4)GlcNAc6S
# Procedure, shortened: as §1
# [15] = target: Neu5Ac(a2-6)GalNAc
# Procedure, shortened: as §1
# [16] = target: Neu5Ac(a2-6)GalNAc(b1-4)GlcNAc
# Procedure, shortened: as §1
# [17] = target: Neu5Ac(a2-6)GlcNAc(b1-4)GlcNAc
# Procedure, shortened: as §1
# [18] = target: Neu5Ac(a2-6)GlcNAc(b1-4)GlcNAc(b1-4)GlcNAc
# Procedure, shortened: as §1
# [19] = target: Neu5Ac(a2-8)Neu5Ac
# Procedure, shortened: as §1
# [20] = target: Neu5Ac(a2-8)Neu5Ac(a2-3)Gal(b1-3)GalNAc(b1-4)[Neu5Ac(a2-8)Neu5Ac(a2-3)]Gal(b1-4)Glc
# Procedure, shortened: as §1
# [21] = target: Neu5Ac(a2-8)Neu5Ac(a2-3)Gal(b1-4)Glc
# Procedure, shortened: as §1
# [22] = target: Neu5Ac(a2-8)Neu5Ac(a2-3)[Gal(b1-3)GalNAc(b1-4)]Gal(b1-4)Glc
# Procedure, shortened: as §1
# [23] = target: Neu5Ac(a2-8)Neu5Ac(a2-3)[GalNAc(b1-4)]Gal(b1-4)Glc
# Procedure, shortened: as §1
# [24] = target: Neu5Ac(a2-8)Neu5Ac(a2-8)Neu5Ac
# Procedure, shortened: as §1
# [25] = target: Neu5Ac(a2-8)Neu5Ac(a2-8)Neu5Ac(a2-3)Gal(b1-4)Glc
# Procedure, shortened: as §1
# [26] = target: Neu5Ac(a2-8)Neu5Ac(a2-8)Neu5Ac(a2-3)[GalNAc(b1-4)]Gal(b1-4)Glc
# Procedure, shortened: as §1
# [27] = target: Neu5Ac(a2-8)Neu5Ac(a2-8)Neu5Ac(a2-8)Neu5Ac(a2-3)[GalNAc(b1-4)]Gal(b1-4)Glc
# Procedure, shortened: as §1
# [28] = target: Neu5Ac(b1-6)GalNAc
# Procedure, shortened: as §1
# [29] = target: Neu5Ac(b2-6)Gal(b1-4)GlcNAc
# Procedure, shortened: as §1
# [30] = target: Neu5Ac(b2-6)GalNAc
# Procedure, shortened: as §1
# [31] = target: Neu5Ac9Ac(a2-3)Gal(b1-3)GlcNAc
# Procedure, shortened: as §1
# [32] = target: Neu5Ac9Ac(a2-3)Gal(b1-4)GlcNAc
# Procedure, shortened: as §1
# [33] = target: Neu5Ac9Ac(a2-6)Gal(b1-4)GlcNAc
# Procedure, shortened: as §1
# [34] = target: Neu5Gc(a2-3)Gal(b1-3)GlcNAc
# Procedure, shortened: as §1
# [35] = target: Neu5Gc(a2-3)Gal(b1-3)[Fuc(a1-4)]GlcNAc
# Procedure, shortened: as §1
# [36] = target: Neu5Gc(a2-3)Gal(b1-4)Glc
# Procedure, shortened: as §1
# [37] = target: Neu5Gc(a2-3)Gal(b1-4)GlcNAc
# Procedure, shortened: as §1
# [38] = target: Neu5Gc(a2-3)Gal(b1-4)[Fuc(a1-3)]GlcNAc
# Procedure, shortened: as §1
# [39] = target: Neu5Gc(a2-6)Gal(b1-4)GlcNAc
# Procedure, shortened: as §1
# [40] = target: Neu5Gc(a2-6)GalNAc
# Procedure, shortened: as §1
# [41] = target: Neu5Gc(b2-6)Gal(b1-4)GlcNAc
# Procedure, shortened: as §1
binder,measurement,setting,value
B1,glycan array binding signal (z-score),[1],-0.111
same,glycan array binding signal (z-score),[2],-0.28
same,glycan array binding signal (z-score),[3],2.25
same,glycan array binding signal (z-score),[4],-0.261
same,glycan array binding signal (z-score),[5],-0.238
same,glycan array binding signal (z-score),[6],-0.298
same,glycan array binding signal (z-score),[7],-0.292
same,glycan array binding signal (z-score),[8],3.3
same,glycan array binding signal (z-score),[9],-0.296
same,glycan array binding signal (z-score),[10],-0.294
same,glycan array binding signal (z-score),[11],-0.298
same,glycan array binding signal (z-score),[12],-0.019
same,glycan array binding signal (z-score),[13],-0.205
same,glycan array binding signal (z-score),[14],-0.286
same,glycan array binding signal (z-score),[15],-0.291
same,glycan array binding signal (z-score),[16],-0.291
same,glycan array binding signal (z-score),[17],-0.298
same,glycan array binding signal (z-score),[18],-0.297
same,glycan array binding signal (z-score),[19],-0.287
same,glycan array binding signal (z-score),[20],-0.219
same,glycan array binding signal (z-score),[21],-0.292
same,glycan array binding signal (z-score),[22],-0.216
same,glycan array binding signal (z-score),[23],-0.265
same,glycan array binding signal (z-score),[24],-0.246
same,glycan array binding signal (z-score),[25],-0.253
same,glycan array binding signal (z-score),[26],-0.086
same,glycan array binding signal (z-score),[27],-0.227
same,glycan array binding signal (z-score),[28],-0.249
same,glycan array binding signal (z-score),[29],-0.265
same,glycan array binding signal (z-score),[30],-0.299
same,glycan array binding signal (z-score),[31],-0.298
same,glycan array binding signal (z-score),[32],-0.294
same,glycan array binding signal (z-score),[33],-0.282
same,glycan array binding signal (z-score),[34],-0.292
same,glycan array binding signal (z-score),[35],-0.214
same,glycan array binding signal (z-score),[36],-0.287
same,glycan array binding signal (z-score),[37],-0.292
same,glycan array binding signal (z-score),[38],-0.287
same,glycan array binding signal (z-score),[39],-0.291
same,glycan array binding signal (z-score),[40],-0.29
same,glycan array binding signal (z-score),[41],-0.287
